Measurements from patent publication US20250114416A1, “ANTIVIRAL C[…] EXTRACT AND STEROID COMPOUND AS ACTIVE INGREDIENTS” (priority 2022, published 2025).

Tested on: SARS-CoV-2 virus
Details: examples using ginseng (Table 1), non-treated control = 100

## C[C@@H]1C[C@H]2[C@@H]3CCC4=CC(=O)C=C[C@]4(C)[C@@]3(F)[C@@H](O)C[C@]2(C)[C@@]1(O)C(=O)CO [Comparative Example 4, Dexamethasone]
  Relative virus titer SARS-CoV-2 virus: 101 ± 1.9

## C[C@]12CCC(=O)C=C1CC[C@@H]1[C@@H]2[C@@H](O)C[C@@]2(C)[C@H]1CC[C@]2(O)C(=O)CO [Comparative Example 5, Hydrocortisone]
  Relative virus titer SARS-CoV-2 virus: 102 ± 1.9

## C[C@]12C=CC(=O)C=C1CC[C@@H]1[C@@H]2[C@@H](O)C[C@@]2(C)[C@H]1CC[C@]2(O)C(=O)CO [Comparative Example 6, Prednisolone]
  Relative virus titer SARS-CoV-2 virus: 101 ± 1.9

## C[C@]12C=CC(=O)C=C1CC[C@H]1[C@@H]3C[C@@H](O)[C@](O)(C(=O)CO)[C@@]3(C)C[C@H](O)[C@@]12F [Comparative Example 7, Triamcinolone]
  Relative virus titer SARS-CoV-2 virus: 101 ± 1.9
